Measured values as given in PubChem BioAssay AID1963576 (National Center for Advancing Translational Sciences (NCATS), 2024).
Out of some 46,000 compounds screened, about 60 (0.1%) were called active. Another 3% or so got no clear call; they are omitted. The call rests on the fitted dose curve; in most records, active means well fitted inhibition curve with a large enough effect; inconclusive means small, poorly fitted or top-dose-only effect; inactive means no such curve, though single readings can be large or run the other way. The list shows a part of the results.

Test: Primary qHTS assay for Inhibitors of ovarian cancer metastasis using an organotypic tumor microenvironment (TME) model. Further: nearly all actives have a fitted effect of over 65% in size.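 On activity change, negative = inhibition: plate controls were DMSO wells for no effect and tomatine positive control wells for full effect.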
Conditions: SKOV3ip1-GFP adhesion/invasion on 3D omental model, fluorescence; series mostly up to 45.8 µM; activity change, negative = inhibition: at the top concentration
Outline: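 Adhesion/invasion was scored as fixed GFP-labeled SKOV3ip1 cell counts (488/509 nm), normalized to DMSO and tomatine controls. Cancer cells in serum-free medium, with four compound doses (0.36-46 umol/L), sat 2 hr at RT then 16 hr at 37 C on a 48 hr fibroblast/mesothelial/ECM culture.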

Activity change, negative = inhibition, inactive:
CCc1ccccc1N(CC)C(=O)c1c(C)oc2ncnc(N3CCOCC3)c12 0.306%
CCOC(=O)C1CCN(c2nc3c(S(=O)(=O)c4ccccc4)nnn3c3ccsc23)CC1 12.6%
CC(Sc1nc(=O)cc(N)n1CCc1ccccc1)C(=O)Nc1ccc(Cl)cc1 (configuration not stated) 13.1%
CCN(C(=O)C1CCC(CNS(=O)(=O)c2cccc3nsnc23)CC1)c1ccc(C)c(C)c1 (configuration not stated) -0.179%
Cc1cccc(CN2CCC(CNC(=O)c3c(C)oc4ncnc(N5CCCCC5)c34)CC2)c1 8.28%
CCN(CC)CC#CCOC(=O)C(O)(c1ccccc1)C1CCCCC1 (configuration not stated) -20.4%
O=C(CCc1cn(Cc2ccc(F)cc2)c2ccccc12)NCCc1ccc(Cl)cc1 -1.79%
CCN(CC)CCNC(=O)c1c(C)oc2ncn(C)c(=O)c12 2.56%
Cc1cccc(C(=O)Nc2sc3c(c2C(=O)N2CCCCC2)CCC(C)C3)c1 (configuration not stated) -1.63%
CC(=O)N1CCOc2cc(S(=O)(=O)NC(C)c3ccccc3)c(Cl)cc21 (configuration not stated) 14.1%
CCOC(=O)c1c(NC(=O)/C=C/c2ccc(C(C)C)cc2)sc2c1CCC2 -5.2%
Cc1ccc(NC(=O)Nc2nnc(N3CCCC3)s2)cc1 6.84%
Cc1ncc([N+](=O)[O-])n1CCO -1.1%
COc1cccc(NC(=O)CSc2nc3ccc(NC(=O)c4cccs4)cc3s2)c1 5.1%
Cc1ccc(C(=O)CC2(O)C(=O)N(Cc3ccccc3F)c3ccccc32)cc1 (configuration not stated) -16.7%
CCN(c1ccccc1)c1nnc(NC(=O)Nc2ccc(Br)cc2)s1 -3.7%
COCc1nc2cccnc2n1C1CCN(S(=O)(=O)N(C)C)CC1 3.76%
CCOc1ccc(CCNc2ncnc3onc(-c4ccc(Cl)cc4)c23)cc1OCC -5.27%
CCc1ccc(OC(C)c2nc(-c3ccc(-n4cccc4)cc3)no2)cc1 (configuration not stated) -14.8%
CCOC(=O)c1ccc(NC(=O)CCc2c(C)nc3c(c(C)nn3-c3ccccc3)c2C)cc1 -0.471%
COc1cccc(C2=C(C(C)=O)Sc3nncn3N2C(C)=O)c1 -17.7%
Cc1ccc(CN(Cc2ccco2)C(=O)COc2ccccc2C)cc1 6.56%
O=S(=O)(NCc1csc(-c2ccccc2)n1)c1cccc(F)c1 0.572%
COc1ccc(NC(=O)C(c2ccc(C)cc2)N(C)C(=O)/C=C\c2ccc3c(c2)OCO3)cc1 (configuration not stated) -8.85%
OC(CCN1CCCCC1)(c1ccccc1)C1CC2C=CC1C2 (configuration not stated) -2.98%
COc1ccccc1NC(c1ccc(Cl)cc1)c1nnc(-c2cccc(F)c2)o1 (configuration not stated) 5.24%
CC(=O)c1ccc(NC(=O)CCc2c(C)nc3c(c(C)nn3-c3ccc(C)cc3)c2C)cc1 -2.52%
O=C(Cn1c(SCc2cccc(F)c2)nc2cccnc21)Nc1ccc(F)c(Cl)c1 -19.3%
CCOC(=O)c1ccccc1NC(=O)CSc1ncc(CO)n1Cc1ccc(C)cc1 -5.08%
Cc1nn2c(=O)cc(CN(C)c3ccccc3)nc2s1 -13.9%
O=C(CCS(=O)(=O)c1nc(-c2cccs2)cc(C(F)(F)F)n1)Nc1ccc(OC(F)(F)F)cc1 0.42%
COC(=O)c1ccccc1NC(=O)C1=CC(c2ccc(C)cc2)=NS(=O)(=O)N1C -14.9%
COc1ccc(C2c3c(oc4ccccc4c3=O)C(=O)N2Cc2ccc3c(c2)OCO3)cc1 (configuration not stated) -7.26%
O=C(CN1CCN(Cc2ccc(F)cc2)C1=O)NCc1ccccc1Cl -20.2%
COc1cccc(-c2nn(C)c3sc(C(=O)NCc4cc(OC)ccc4OC)cc23)c1 3.06%
COc1ccc(OC)c(NC(=O)c2cc3c(n(-c4ccc(Cl)cc4)c2=O)CC(C)(C)CC3=O)c1 1.57%
O=C(Nc1ccc(F)c(Cl)c1)N1CCN(C(=O)c2nsc3ccccc23)CC1 -3.26%
CCN1c2ccccc2-n2cccc2C12CCN(C(=O)Nc1ccccc1C(F)(F)F)CC2 -0.391%
CCOc1ccc2nc(N3CCN(C(=O)CS(=O)(=O)c4ccc(F)cc4)CC3)sc2c1 -8.64%
CCn1c(C(=O)N2CCC(C(=O)N3CCN(c4cccc(C)c4C)CC3)CC2)cc2sccc21 12.5%
Cc1ccc(NC(=O)Cn2nnnc2-c2ccccc2N)cc1 -3.54%
Cn1nc(C(=O)N2CCN(c3ccc(Cl)cc3)CC2)c2c1-c1ccccc1SC2 -18.7%
O=c1c2cc3c(cc2nc2sc(Nc4ccc(F)cc4F)nn12)OCO3 4.7%
COc1ccc(Cl)cc1NC(=O)N1CCC(CN2CCc3ccccc3C2)CC1 -4.14%
c1ccc(CNc2nc3ccccc3c3nc(-c4ccccc4)nn23)cc1 0.842%
Cc1ccc2c(=O)cc(C(=O)Nc3sc4c(c3C(=O)NCc3ccco3)CCC4)oc2c1C -4.42%

outcome, inactive:
Cc1oc2ccc(O)c(CN(C)Cc3ccccc3)c2c1C(=O)Nc1ccccc1
Cn1cnc(S(=O)(=O)N2CCC(C(=O)NCc3ccccc3Cl)CC2)c1
CNS(=O)(=O)c1cn(CC(=O)N2CCN(c3ccccc3F)CC2)cc1S(=O)(=O)NC
O=C(COc1ccccc1Cl)Nc1cc(-c2ccccc2F)nn1-c1ccccc1
Cc1cc(C)cc(NC(=O)CN(c2cc(C(F)(F)F)ccc2Cl)S(=O)(=O)c2ccccc2)c1
Cc1cc(C)cc(-n2c(SCC(=O)N3CCc4ccccc43)nc3c([nH]c4ccccc43)c2=O)c1
Cc1cccc(-c2nc(SCCCOc3ccccc3Cl)n3[nH]c(=O)cc3n2)c1
CCOc1ccc(OCC)c(NC(=O)C2CCCN(S(=O)(=O)c3ccc4c(c3)oc(=O)n4C)C2)c1 (configuration not stated)
CCOc1ccc(CNC(=O)Cn2c(=O)c3cccn3c3ccc(F)cc32)cc1
Cc1ccc(C)c(N2CCN(c3ncnc4c3nc3n4CCCCC3)CC2)c1
O=C(C1CCCN(S(=O)(=O)c2cccs2)C1)N1CCN(c2cccc(Cl)c2)CC1 (configuration not stated)
COc1cccc(CNC(=O)CSc2ccc(-c3sc(-c4ccccc4)nc3C)nn2)c1
CCOc1ccc(C(=O)NCC(c2ccco2)S(=O)(=O)c2ccc(C)cc2)cc1 (configuration not stated)
NC(=O)CSc1nc2c(oc3ccccc32)c(=O)n1-c1ccccc1F
Cn1c(=O)c2nc(SCC(=O)Nc3cc(Cl)ccc3Cl)n(C)c2n(C)c1=O
COc1ccc(NS(=O)(=O)c2cc3[nH]c(=O)c(=O)[nH]c3cc2C)cc1OC
